Many values rest on one well or one pass, so single values are uncertain.
Columns and labels:
[1] = system: CHO-K1; assay: hypodiploid nuclei frequency (% of nucleated events); higher = more hypodiploid events (aneugenic)
Method: (§1)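 Flow-cytometric in vitro micronucleus assay (Litron MicroFlow) in CHO-K1 cells in 96-well plates, 19 concentrations (4.5-200 µM, n=1 per concentration). Without S9, cells were exposed for 24 h and sampled at 48 h. With Aroclor 1254-induced rat liver S9, cells were exposed for 3-4 h and sampled at 27-28 h. Read-outs are %MN and %hypodiploid nuclei relative to nucleated events, and relative survival as the nuclei-to-bead ratio versus the 1% DMSO vehicle control (x100).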

[2] = system: CHO-K1; assay: micronucleus frequency (% of nucleated events); higher = more micronuclei (genotoxic)
[3] = system: CHO-K1; assay: relative survival (nuclei to bead ratio vs DMSO control) (% of vehicle control); higher = more surviving cells
Method: as §1

[4] = concentration: 4.5 (µM), S9 metabolic activation: with S9, exposure time: 3-4 hours
[5] = concentration: 4.5 (µM), S9 metabolic activation: without S9, exposure time: 24 hours
[6] = concentration: 5.63 (µM), S9 metabolic activation: with S9, exposure time: 3-4 hours
[7] = concentration: 5.63 (µM), S9 metabolic activation: without S9, exposure time: 24 hours
[8] = concentration: 7.04 (µM), S9 metabolic activation: with S9, exposure time: 3-4 hours
[9] = concentration: 7.04 (µM), S9 metabolic activation: without S9, exposure time: 24 hours
[10] = concentration: 8.8 (µM), S9 metabolic activation: with S9, exposure time: 3-4 hours
[11] = concentration: 8.8 (µM), S9 metabolic activation: without S9, exposure time: 24 hours
[12] = concentration: 11 (µM), S9 metabolic activation: with S9, exposure time: 3-4 hours
[13] = concentration: 11 (µM), S9 metabolic activation: without S9, exposure time: 24 hours
[14] = concentration: 13.7 (µM), S9 metabolic activation: with S9, exposure time: 3-4 hours
[15] = concentration: 13.7 (µM), S9 metabolic activation: without S9, exposure time: 24 hours
[16] = concentration: 17.2 (µM), S9 metabolic activation: with S9, exposure time: 3-4 hours
[17] = concentration: 17.2 (µM), S9 metabolic activation: without S9, exposure time: 24 hours
[18] = concentration: 21.5 (µM), S9 metabolic activation: with S9, exposure time: 3-4 hours
[19] = concentration: 21.5 (µM), S9 metabolic activation: without S9, exposure time: 24 hours
[20] = concentration: 26.8 (µM), S9 metabolic activation: with S9, exposure time: 3-4 hours
[21] = concentration: 26.8 (µM), S9 metabolic activation: without S9, exposure time: 24 hours
[22] = concentration: 33.6 (µM), S9 metabolic activation: with S9, exposure time: 3-4 hours
[23] = concentration: 33.6 (µM), S9 metabolic activation: without S9, exposure time: 24 hours
[24] = concentration: 41.9 (µM), S9 metabolic activation: with S9, exposure time: 3-4 hours
[25] = concentration: 41.9 (µM), S9 metabolic activation: without S9, exposure time: 24 hours
[26] = concentration: 52.4 (µM), S9 metabolic activation: with S9, exposure time: 3-4 hours
[27] = concentration: 52.4 (µM), S9 metabolic activation: without S9, exposure time: 24 hours
[28] = concentration: 65.5 (µM), S9 metabolic activation: with S9, exposure time: 3-4 hours
[29] = concentration: 65.5 (µM), S9 metabolic activation: without S9, exposure time: 24 hours
[30] = concentration: 81.9 (µM), S9 metabolic activation: with S9, exposure time: 3-4 hours
[31] = concentration: 81.9 (µM), S9 metabolic activation: without S9, exposure time: 24 hours
[32] = concentration: 102 (µM), S9 metabolic activation: with S9, exposure time: 3-4 hours
[33] = concentration: 102 (µM), S9 metabolic activation: without S9, exposure time: 24 hours
[34] = concentration: 128 (µM), S9 metabolic activation: with S9, exposure time: 3-4 hours
[35] = concentration: 128 (µM), S9 metabolic activation: without S9, exposure time: 24 hours
[36] = concentration: 160 (µM), S9 metabolic activation: with S9, exposure time: 3-4 hours
[37] = concentration: 160 (µM), S9 metabolic activation: without S9, exposure time: 24 hours
[38] = concentration: 200 (µM), S9 metabolic activation: with S9, exposure time: 3-4 hours
[39] = concentration: 200 (µM), S9 metabolic activation: without S9, exposure time: 24 hours
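For hypodiploid nuclei frequency (% of nucleated events) in this document: hypodiploid nuclei gated on a flow cytometer with 488 nm excitation after SYTOX Green staining, cultures at 37 °C, positive controls vinblastine without S9 and cyclophosphamide with S9.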
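For micronucleus frequency (% of nucleated events) in this document: cells lysed with nuclei stained by SYTOX Green, then micronucleus-gated events counted against nucleated events by flow cytometry with 488 nm excitation.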
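For relative survival (nuclei to bead ratio vs DMSO control) in this document: Lysed-cell nuclei stained with SYTOX Green and counted against counting beads by flow cytometry at 488 nm excitation, with vinblastine (no S9) and cyclophosphamide (plus S9) as positive controls.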

ClC(Cl)(Cl)c1ccccc1 [Benzotrichloride]
hypodiploid nuclei frequency [1, 4]: 0.16% | hypodiploid nuclei frequency [1, 5]: 0.84% | hypodiploid nuclei frequency [1, 6]: 0.22% | hypodiploid nuclei frequency [1, 7]: 0.72% | hypodiploid nuclei frequency [1, 8]: 0.2% | hypodiploid nuclei frequency [1, 9]: 0.8% | hypodiploid nuclei frequency [1, 10]: 0.28% | hypodiploid nuclei frequency [1, 11]: 0.72% | hypodiploid nuclei frequency [1, 12]: 0.2% | hypodiploid nuclei frequency [1, 13]: 0.76% | hypodiploid nuclei frequency [1, 14]: 0.2% | hypodiploid nuclei frequency [1, 15]: 0.8% | hypodiploid nuclei frequency [1, 16]: 0.3% | hypodiploid nuclei frequency [1, 17]: 0.7% | hypodiploid nuclei frequency [1, 18]: 0.16% | hypodiploid nuclei frequency [1, 19]: 0.88% | hypodiploid nuclei frequency [1, 20]: 0.2% | hypodiploid nuclei frequency [1, 21]: 1.06% | hypodiploid nuclei frequency [1, 22]: 0.14% | hypodiploid nuclei frequency [1, 23]: 1.12% | hypodiploid nuclei frequency [1, 24]: 0.22% | hypodiploid nuclei frequency [1, 25]: 0.96% | hypodiploid nuclei frequency [1, 26]: 0.22% | hypodiploid nuclei frequency [1, 27]: 1% | hypodiploid nuclei frequency [1, 28]: 0.24% | hypodiploid nuclei frequency [1, 29]: 0.8% | hypodiploid nuclei frequency [1, 30]: 0.2% | hypodiploid nuclei frequency [1, 31]: 1.06% | hypodiploid nuclei frequency [1, 32]: 0.26% | hypodiploid nuclei frequency [1, 33]: 1.12% | hypodiploid nuclei frequency [1, 34]: 0.18% | hypodiploid nuclei frequency [1, 35]: 0.94% | hypodiploid nuclei frequency [1, 36]: 0.2% | hypodiploid nuclei frequency [1, 37]: 1.1% | hypodiploid nuclei frequency [1, 38]: 0.38% | hypodiploid nuclei frequency [1, 39]: 1.26% | micronucleus frequency [2, 4]: 1.04% | micronucleus frequency [2, 5]: 2.6% | micronucleus frequency [2, 6]: 1.38% | micronucleus frequency [2, 7]: 1.56% | micronucleus frequency [2, 8]: 1.24% | micronucleus frequency [2, 9]: 1.72% | micronucleus frequency [2, 10]: 1.42% | micronucleus frequency [2, 11]: 1.78% | micronucleus frequency [2, 12]: 1.04% | micronucleus frequency [2, 13]: 2.26% | micronucleus frequency [2, 14]: 1.08% | micronucleus frequency [2, 15]: 1.48% | micronucleus frequency [2, 16]: 1.06% | micronucleus frequency [2, 17]: 1.56% | micronucleus frequency [2, 18]: 0.88% | micronucleus frequency [2, 19]: 2.02% | micronucleus frequency [2, 20]: 1.4% | micronucleus frequency [2, 21]: 1.66% | micronucleus frequency [2, 22]: 1.48% | micronucleus frequency [2, 23]: 2% | micronucleus frequency [2, 24]: 1.32% | micronucleus frequency [2, 25]: 1.64% | micronucleus frequency [2, 26]: 1.12% | micronucleus frequency [2, 27]: 1.84% | micronucleus frequency [2, 28]: 1.32% | micronucleus frequency [2, 29]: 2.02% | micronucleus frequency [2, 30]: 1.42% | micronucleus frequency [2, 31]: 2.08% | micronucleus frequency [2, 32]: 1.34% | micronucleus frequency [2, 33]: 2.16% | micronucleus frequency [2, 34]: 1.24% | micronucleus frequency [2, 35]: 1.78% | micronucleus frequency [2, 36]: 1.06% | micronucleus frequency [2, 37]: 2.02% | micronucleus frequency [2, 38]: 1.44% | micronucleus frequency [2, 39]: 2.28% | relative survival [3, 4]: 155 | relative survival [3, 5]: 151 | relative survival [3, 6]: 152 | relative survival [3, 7]: 169 | relative survival [3, 8]: 111 | relative survival [3, 9]: 132 | relative survival [3, 10]: 133 | relative survival [3, 11]: 172 | relative survival [3, 12]: 143 | relative survival [3, 13]: 123 | relative survival [3, 14]: 161 | relative survival [3, 15]: 133 | relative survival [3, 16]: 179 | relative survival [3, 17]: 120 | relative survival [3, 18]: 138 | relative survival [3, 19]: 117 | relative survival [3, 20]: 96.2 | relative survival [3, 21]: 109 | relative survival [3, 22]: 105 | relative survival [3, 23]: 146 | relative survival [3, 24]: 106 | relative survival [3, 25]: 121 | relative survival [3, 26]: 117 | relative survival [3, 27]: 131 | relative survival [3, 28]: 123 | relative survival [3, 29]: 105 | relative survival [3, 30]: 97.5 | relative survival [3, 31]: 158 | relative survival [3, 32]: 146 | relative survival [3, 33]: 130 | relative survival [3, 34]: 139 | relative survival [3, 35]: 111 | relative survival [3, 36]: 126 | relative survival [3, 37]: 96 | relative survival [3, 38]: 138 | relative survival [3, 39]: 85.5

From the supplement of paper PMC9151546
